{"source": "PubChem BioAssay (NCI)", "system": "NCI-H322M lung", "assay": "growth of human tumour cells (NCI), 48 h", "note": "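Test compounds were applied to cells in 96-well plates for 48 hours at 5 doses. The concentration for 50% growth inhibition is given as GI50. The concentration for full growth arrest is given as TGI.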"}
{"smiles": "C#C[C@]1(O)CC[C@H]2[C@@H]3CC=C4c5sc(Nc6cccc(C)n6)nc5CC[C@]4(C)[C@H]3CC[C@@]21C", "values": [{"measurement": "GI50", "result": 2.14, "unit": "µM"}, {"measurement": "TGI", "result": 12.1, "unit": "µM"}]}
{"smiles": "CC1=C2C(=C[C@@](C)(C=O)[C@@H]2O)C(=O)[C@](C)(O)C12CC2", "values": [{"measurement": "GI50", "result": 2.25, "unit": "µM"}, {"measurement": "TGI", "result": 7.75, "unit": "µM"}]}
